In the supplement of paper PMC7125110:
± gives the standard error. Variants at the floor of the assay are shown more often than the library holds them.

B1: glmS ribozyme (parent)
chain: AUAAAAGCGCCAGAACUACAGAAAUGUAGUUGACGAGGAGGAGGUUUAUCGAAUUUUCGGCGGAUGCCUCCAAA

Tests used:
Details in all cases: with glucosamine-6-phosphate
glucosamine-6-phosphate [1] = variants of: B1; test: self-cleavage kobs at 640 uM GlcN6P; higher = faster cleavage; RNA array
Summary of the method: (§1)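 In situ transcription by E. coli RNA polymerase produced barcoded ribozyme variants on sequenced MiSeq chips, and a hybridised Cy3 probe tracked them at 37 °C. Glucosamine-6-phosphate was flowed in at 40 μM to 10 mM in HEPES/KCl/Mg(OAc)2 buffer. kcat and KM were taken from weighted Michaelis–Menten fits of kobs values from exponential decay fits.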

glucosamine-6-phosphate [2] = variants of: B1; test: self-cleavage kobs at 160 uM GlcN6P; higher = faster cleavage; RNA array
Summary of the method: as §1

glucosamine-6-phosphate [3] = variants of: B1; test: self-cleavage kobs at 2500 uM GlcN6P; higher = faster cleavage; RNA array
Summary of the method: as §1

glucosamine-6-phosphate [4] = variants of: B1; test: self-cleavage kobs at 10000 uM GlcN6P; higher = faster cleavage; RNA array
Summary of the method: as §1

Row | Variant | self-cleavage kobs at 640 uM GlcN6P (glucosamine-6-phosphate [1]) [s⁻¹] | self-cleavage kobs at 160 uM GlcN6P (glucosamine-6-phosphate [2]) [s⁻¹] | self-cleavage kobs at 2500 uM GlcN6P (glucosamine-6-phosphate [3]) [s⁻¹] | self-cleavage kobs at 10000 uM GlcN6P (glucosamine-6-phosphate [4]) [s⁻¹]
1 | G7U A12U G41U G51A | < 1e-05 | < 1e-05 | < 1e-05 | 
2 | A6U G44U G66U | < 1e-05 |  | < 1e-05 | 
3 | A6G G35U U55G G63C | < 1e-05 |  |  | 
4 | A6U G44U C68A | < 1e-05 | < 1e-05 | < 1e-05 | 
5 | G7C C16U | < 1e-05 | < 1e-05 | < 1e-05 | < 1e-05
6 | G7A C10G A36C G40C U56G G60A G66U | < 1e-05 |  |  | 
7 | G7C U65C | < 1e-05 |  | < 1e-05 | 
8 | A6U A36C G38U U56C C67G C68G | 0.000412 ± 0.0001 |  | 0.000145 ± 4.4e-05 | 
9 | G7C C50U G63A U65C | < 1e-05 |  |  | 
10 | A6G G40U | < 1e-05 | < 1e-05 | < 1e-05 | < 1e-05
11 | A6U G38A G41A C68A U69G | < 1e-05 |  | < 1e-05 | 
12 | G7C A39C G40C G44U | < 1e-05 |  |  | 
13 | A6G G35U C61A G63C C67G | < 1e-05 |  |  | 
14 | G7U A15U U49C A52C | < 1e-05 |  | < 1e-05 | < 1e-05
15 | A6G C11U C50U U57A | < 1e-05 |  |  | 
16 | A6U G29U G63U | < 1e-05 |  | < 1e-05 | 
17 | A6U U54C C68G U69G | 0.00033 ± 9.7e-05 |  |  | 
18 | G7A A15U U46C U49G | < 1e-05 |  |  | 
19 | A6U G60U | < 1e-05 | < 1e-05 | < 1e-05 | 

Row | Variant | self-cleavage kobs at 640 uM GlcN6P (glucosamine-6-phosphate [1]) [s⁻¹] | self-cleavage kobs at 160 uM GlcN6P (glucosamine-6-phosphate [2]) [s⁻¹] | self-cleavage kobs at 2500 uM GlcN6P (glucosamine-6-phosphate [3]) [s⁻¹] | self-cleavage kobs at 10000 uM GlcN6P (glucosamine-6-phosphate [4]) [s⁻¹]
20 | A6U G60A | < 1e-05 |  |  | 
21 | G7A U54C U65G C67U | < 1e-05 | < 1e-05 | < 1e-05 | 
22 | A6U C10G G35U G62U C70A | < 1e-05 | < 1e-05 |  | 
23 | G7C A52U A53G | < 1e-05 |  | < 1e-05 | 
24 | G7C U56A | < 1e-05 | < 1e-05 | < 1e-05 | < 1e-05
25 | A6G C50G A52U G59U | < 1e-05 |  |  | 
26 | G7A G44C C50U | < 1e-05 |  | < 1e-05 | 
27 | A6U G35C A64C | < 1e-05 |  | < 1e-05 | 
28 | G7A U46A C61G G62A | < 1e-05 |  |  | 
29 | G7C U45A C70U | < 1e-05 | < 1e-05 |  | 
30 | A6U U45G A48U U54G | < 1e-05 | < 1e-05 | < 1e-05 | 
31 | G7A A14G G29U C70G | < 1e-05 |  | < 1e-05 | 
32 | A6C C34U A42C U47A G63C A64G | < 1e-05 |  | < 1e-05 | 
33 | A6C G40C C50U C58U | < 1e-05 |  | < 1e-05 | 
34 | A6U A12G C16A G40C G44A A48C A53U | < 1e-05 |  |  | 
35 | A6G A33G G59C G62C C67A | < 1e-05 |  |  | 
36 | A6C G43C U46A | < 1e-05 |  |  | 
37 | A6U A12U U45G C68A | < 1e-05 |  | < 1e-05 | 
38 | G7C A53U | < 1e-05 | < 1e-05 | < 1e-05 | < 1e-05

Row | Variant | self-cleavage kobs at 640 uM GlcN6P (glucosamine-6-phosphate [1]) [s⁻¹] | self-cleavage kobs at 160 uM GlcN6P (glucosamine-6-phosphate [2]) [s⁻¹] | self-cleavage kobs at 2500 uM GlcN6P (glucosamine-6-phosphate [3]) [s⁻¹] | self-cleavage kobs at 10000 uM GlcN6P (glucosamine-6-phosphate [4]) [s⁻¹]
39 | A6G C11G C34U U45G | < 1e-05 |  |  | 
40 | A6G G9U U31C U55C C70U | < 1e-05 | < 1e-05 |  | 
41 | A6G C11A U55G C68G | < 1e-05 |  |  | 
42 | A6G G13A U54G | < 1e-05 |  |  | 
43 | A6U C8A G29A G60A G63C | < 1e-05 |  | < 1e-05 | 
44 | A6G C10G G37C G40C | < 1e-05 |  | < 1e-05 | 
45 | G7A C61G | < 1e-05 | < 1e-05 | < 1e-05 | < 1e-05
46 | G7A A39U | < 1e-05 | < 1e-05 |  | 
47 | A6G A14U G44A | < 1e-05 |  | < 1e-05 | 
48 | G7C G13U A15U G43U U55A C68U | < 1e-05 |  | < 1e-05 | 
49 | A6G A39G A52G A53U | < 1e-05 | < 1e-05 |  | 
50 | G7C C67A | < 1e-05 | < 1e-05 | < 1e-05 | < 1e-05
51 | A6G G44C G66U | < 1e-05 |  |  | 
52 | A6G G35U G43C C71G | < 1e-05 | < 1e-05 | < 1e-05 | 
53 | G7A U31A A33G G44C U65A | < 1e-05 | < 1e-05 | < 1e-05 | 
54 | G7C A36G A39G C67U | < 1e-05 | < 1e-05 | < 1e-05 | 
55 | A6U C8U G9U U47G | < 1e-05 |  | < 1e-05 | 
56 | G7C A12G U46G U47A | < 1e-05 |  |  | 
57 | G7U C8A G13C C16U | < 1e-05 |  |  | 
